Assay results reported in PubChem BioAssay AID493170 (National Center for Advancing Translational Sciences (NCATS), 2011).
The inconclusive results got no clear call from the source; some entries with a clear call stand among them for comparison. Potencies of inconclusive entries are left out as doubtful fits. Calls of active or inactive are those of the source. Calls follow the shape of the dose curve; as a rule, active = well fitted inhibition curve with a large enough effect; inconclusive = small, poorly fitted or top-dose-only effect, or effect the other way; inactive = flat fitted curve, though single readings scatter.

What follows are compounds tested against Ubiquitin carboxyl-terminal hydrolase 2 (Homo sapiens) (UniProt O75604) (assay: Ub-rhodamine 110 based assay for inhibitors Ubiquitin-specific Protease USP2a). Settings: USP2a Ub-rhodamine110 cleavage, fluorescence; series mostly up to 38.3 µM.
UniProt O75604, sequence (O75604 whole entry, looked up): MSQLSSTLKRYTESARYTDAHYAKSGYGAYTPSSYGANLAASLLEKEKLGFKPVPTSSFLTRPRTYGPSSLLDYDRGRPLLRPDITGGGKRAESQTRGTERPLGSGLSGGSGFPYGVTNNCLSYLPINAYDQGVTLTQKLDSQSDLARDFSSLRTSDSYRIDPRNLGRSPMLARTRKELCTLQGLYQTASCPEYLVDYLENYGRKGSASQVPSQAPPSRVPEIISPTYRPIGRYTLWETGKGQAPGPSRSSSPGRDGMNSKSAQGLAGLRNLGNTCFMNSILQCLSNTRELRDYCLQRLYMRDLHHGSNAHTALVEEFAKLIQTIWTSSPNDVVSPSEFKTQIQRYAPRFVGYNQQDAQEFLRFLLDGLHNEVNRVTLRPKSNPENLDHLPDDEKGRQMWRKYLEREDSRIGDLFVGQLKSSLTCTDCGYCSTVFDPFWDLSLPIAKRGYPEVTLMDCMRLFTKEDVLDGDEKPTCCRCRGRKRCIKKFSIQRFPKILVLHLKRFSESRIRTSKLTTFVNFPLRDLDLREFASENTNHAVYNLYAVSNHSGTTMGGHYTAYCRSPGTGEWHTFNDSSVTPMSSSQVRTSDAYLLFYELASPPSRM
Excerpt: NIH Molecular Libraries Probe Centers Network [MLPCN] NIH Chemical Genomics Center [NCGC] MLPCN Grant: XO1-MH079852-01 PI Name: Nicholson, Ben. Progenra Inc, Malvern, PA NCGC Assay Overview: Homeostasis of cellular proteins is maintained through a combination of synthesis and degradation. The pathway that accounts for the majority of protein degradation is the ubiquitin-proteasomal pathway. Ubiquitin (Ub) is highly conserved in all cells and the generation of a multi-Ub chain typically targets proteins for degradation by the proteasome. However, ubiquitination is highly reversible and dynamic. Deubiquitination, the reverse process, is catalyzed through the action of enzymes referred to as isopeptidases or deubiquitinating enzymes (DUBs). This group of enzymes is collectively responsible for maintaining adequate pools of free ubiquitin and regulating the ubiquitination status of cellular proteins. The class of DUBs referred to as the ubiquitin-specific proteases (USP) family functions endoproteolytically to cleave Ub chains from a wide range of protein substrates. USP2a deubiquitinates fatty acid synthase (FASN) which has recently been identified as an emerging oncology target. To identify inhibitors of USP2a a cell-free assay was employed. This assay measures cleavage of a profluorescent substrate (Ub-Rhodamine 110; Boston Biochem Cat#: U-555) by USP2a. The assay gives a fluorescent read-out at excitation/emission wavelengths of 485/531. The USP2a enzyme was provided by Progenra, Inc. licensed for sale by LifeSensors, Inc.
NCGC Assay Protocol: The assay buffer, prepared fresh at the day of the assay, contains 20mM Tris-HCl pH 8.0, 2mM CaCl2, 2mM beta-Mercaptoethanol, 0.05% CHAPS. 3uL of 10 nM (5 nM final) USP2a, was dispensed into a medium-binding black solid Kalypsys 1,536 well plate using the Kalypsys dispenser. The assay plate was then pinned with 23nL compounds in DMSO with a Kalypsys pintool in columns 5-48 (0.3% final DMSO concentration). The negative control was buffer/DMSO only in column 3. The assay plate is incubated at RT for 30min. Subsequently, 3uL of 300 nM Ub-Rhod110 (150 nM final) was dispensed into the plate using a Kalypsys dispenser. Plates were read after every minute for 7 min on a ViewLux (Perkin Elmer) plate reader using the following wavelengths: Ex 485nm /Em 531nm. Data were normalized to the AC100 inhibition (buffer alone). Concentration-response curves were fitted to the normalized data and the concentration-response curves were then classified based on curve quality (r2), response magnitude and degree of measured activity. The time zero reading was used to flag fluorescence artifacts.
Also: nearly all actives have a fitted effect of over 50% in size.
Potency is read from the fitted curve at half-maximal effect; tags tell the direction and shape of the fitted curve.

Row | Compound | Potency
1 | O=C1NC(=S)N(c2ccccc2)C(=O)/C1=C/c1ccco1 | inconclusive [inhibitor, partial curve, poor fit]
2 | NC(N)=N/N=C/c1ccc(N(c2ccccc2)c2ccccc2)cc1 | inconclusive [inhibitor, single point]
3 | FC(F)(F)c1ccc2c(c1)N(CCCN1CCN(CCCl)CC1)c1ccccc1S2 | inactive
4 | COc1ccc(S(=O)(=O)Cc2ccc(C(=O)N3CCC4(CC3)OCCO4)o2)cc1 | inactive
5 | O=c1[nH]c(=S)n(Cc2ccco2)c(O)c1C=NCc1cccs1 | inconclusive [inhibitor, partial curve, poor fit]
6 | O=C1NC(=O)N(Cc2ccco2)C(=O)/C1=C/C=C/c1ccco1 | inconclusive [inhibitor, partial curve, poor fit]
7 | O=C1NC(=O)N(Cc2ccco2)C(=O)/C1=C/c1cccn1CCOc1ccccc1Cl | inconclusive [inhibitor, partial curve]
8 | Clc1ccc(C(c2ccc(Cl)cc2)n2cc[n+](CC(OCc3ccc(Cl)cc3Cl)c3ccc(Cl)cc3Cl)c2)cc1 (stereo not given) | active: 10 µM
9 | O=C1CC(=O)N(Cc2ccccc2)C(=O)N1CCCCCCN1C(=O)CC(=O)N(Cc2ccccc2)C1=O | inconclusive [inhibitor, partial curve]
10 | Cc1ccc2[nH]c(C)c(CCNC(=O)c3cc4cc([N+](=O)[O-])ccc4oc3=O)c2c1 | inconclusive [inhibitor, partial curve, poor fit]
